# Reference: PubChem BioAssay AID1347417 (National Center for Advancing Translational Sciences (NCATS), 2020)
# Hit rate of the full screen: of about 120,000 compounds, about 5,300 (4.4%) were called active. Inconclusive means that the source gave no clear call. Such entries were picked first, then a sample of the others. Calls follow the shape of the dose curve; as a rule, active = well fitted inhibition curve with a large enough effect; inconclusive = small, poorly fitted or top-dose-only effect; inactive = no such curve, though single readings can be large or run the other way. Potencies beside an inconclusive call are fits to weak or partial responses and may not hold up.
# Assay: qHTS Primary assay for Inhibitors of Plasmodium falciparum Dd2 growth in vitro; also: nearly all actives have a fitted effect of over 65% in size;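 as to activity, negative = inhibition: plate controls were DMSO vehicle for no effect and reference drug for full effect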
# Details: P. falciparum Dd2 growth, SYBR Green, 72 h; activity, negative = inhibition: at 28.9 µM (top of the series) unless noted; series mostly up to 28.9 µM
# Procedure, shortened: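 Readout: SYBR Green fluorescence, 485 nm excitation, 535 nm emission, after ~16 h lysis at 37C. Before that, Dd2-infected red cells (2.5% hematocrit) grew 72 h with compound, 29 uM top final concentration.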
# Potency is read from the fitted curve at half-maximal effect; tags tell the direction and shape of the fitted curve.
Structure (SMILES),Potency,"activity, negative = inhibition",outcome
O=C1CCN(C(=O)Cc2cccc(F)c2)CCOCCN1,"inconclusive: 3.98 µM [inhibitor, single point]",,
O=C(c1cccs1)N1CCC2(CC1)NCCc1c2[nH]c2ccccc12,"inconclusive: 3.98 µM [inhibitor, partial curve, poor fit]",,
O=C(NCc1ccc(C(F)(F)F)cc1)c1cc(Br)cn2ccnc12,"inconclusive: 12.6 µM [inhibitor, single point]",,
COc1ccccc1-c1cc2c(ccn2C)c(C(=O)NCCc2ccccn2)n1,"inconclusive: 25.1 µM [inhibitor, single point]",,
CCCCN(CCCC)c1ncnc2c1cnn2-c1cccc(C)c1,"inconclusive: 8.91 µM [inhibitor, partial curve, poor fit]",,
COc1ccc(Br)cc1C(=O)Nc1ccc2oc(-c3cccnc3)nc2c1,"inconclusive: 14.1 µM [inhibitor, single point]",,
COCCNS(=O)(=O)c1cc(C(=O)O)cc(-c2ccc(OC)c(F)c2)c1,,inactive: -11.3%,
CN(CC1CCOC1)C(=O)Nc1cccc(Cl)c1 (stereo not drawn),,inactive: 32% [at 5.79 µM],
Cc1ccc(-n2c(C3CCN(C(=O)c4cc(F)ccc4F)CC3)n[nH]c2=O)cc1,,,inactive
COc1ccc(NC(=O)C(C)(C)Oc2nn(CC3CC3)c3ccc(CN4CCCC4)cc23)cc1,"inconclusive: 2.82 µM [inhibitor, single point]",,
O=C(C1CCN(C(=O)N2CC3CC(C2)[C@H]2CCCC(=O)N2C3)CC1)N1CCN(c2ccccn2)CC1 (stereo partly drawn),,,inactive
O=C(NC1CC(=O)N(Cc2ccccc2C(F)(F)F)C1)c1ccc[n+]([O-])c1 (stereo not drawn),,inactive: 7.21%,
O=C(C1CCN(c2nc(-c3ccccc3)nc3c2CCC3)CC1)N1C[C@H]2CC[C@H]1C2,"inconclusive: 11.2 µM [inhibitor, single point]",,
Cc1ccc(S(=O)(=O)c2cn(Cc3cccc(F)c3)c3cc(N4CCCC4)c(F)cc3c2=O)cc1,"inconclusive: 2.24 µM [inhibitor, full curve]",,
O=C1Nc2ccc(-c3ccc(Cl)cc3)cc2C(=O)N2CCN(C(=O)c3cccnc3)C[C@H]12,"inconclusive: 12.6 µM [inhibitor, partial curve, poor fit]",,
CCN(CC1CCCN(CCc2cccc(OC)c2)C1)C(=O)CSC (stereo not drawn),"inconclusive: 10 µM [inhibitor, single point]",,
COc1ccccc1CN1CCCC(CN(CCN(C)C)C(=O)c2cccnc2)C1 (stereo not drawn),"inconclusive: 7.94 µM [inhibitor, partial curve]",,
CCOC(=O)c1cc(-c2ccccc2)n(CCCC(=O)Nc2cccc(C)c2C)c1C,"inconclusive: 17.8 µM [inhibitor, single point]",,
Cn1c(=O)c2ccnn2c2ccc(C(=O)Nc3ccc4c(c3)OCCO4)cc21,"inconclusive: 8.91 µM [inhibitor, single point]",,
CC(C)c1noc(-c2cccn3c(CNC(=O)c4cccc5[nH]ccc45)nnc23)n1,,inactive: -17.9%,
COCCN1C(=O)[C@@H]2C[C@@H](CN2C(=O)c2cncnc2)Oc2ccccc21,,inactive: 21.8% [at 44.1 µM],

Structure (SMILES),Potency,"activity, negative = inhibition",outcome
CCn1ncc(CN2CCC(N3C(=O)C4(CCCC4)C3c3scnc3C)CC2)c1C (stereo not drawn),,,inactive
COCCOC1CN(C2CCN(S(=O)(=O)c3ccccc3)CC2)C12CCCCC2 (stereo not drawn),,,inactive
O=C(c1nccc2ccccc12)N1CCC(n2cc(-c3nc(-c4ccccc4)no3)nn2)C1 (stereo not drawn),,,inactive
Cc1cc(F)ccc1-c1[nH]nc2ncc(-c3ccc([S+](C)(=O)[O-])cc3)nc12,"inconclusive: 7.08 µM [inhibitor, partial curve, poor fit]",,
CC(=O)Nc1ccc(CN2CCn3c(nn(-c4ccc(C(F)(F)F)cc4)c3=O)C2)cc1,"inconclusive: 11.2 µM [inhibitor, partial curve, poor fit]",,
CC(=O)NC1(C)CCCN(Cc2cccc(Nc3cccc(C#N)c3)c2)C1 (stereo not drawn),"inconclusive: 7.94 µM [inhibitor, partial curve, poor fit]",,
Cc1ccc(-c2nnc([C@H]3CCN(Cc4cccc(C#N)c4)C3)o2)cc1,"inconclusive: 2 µM [inhibitor, partial curve, poor fit]",,
Cc1cc(C)c(CNC(=O)c2nc(-c3cccnc3)cc3[nH]ccc23)c(=O)[nH]1,"inconclusive: 7.94 µM [inhibitor, partial curve, poor fit]",,
COc1ccc(-c2cc(N3CCCN(C(=O)c4ccc(C(C)(C)C)cc4)CC3)n[nH]2)cc1,"inconclusive: 0.501 µM [inhibitor, full curve, poor fit]",,
O=C(CN1C(=O)C(c2ccccc2)=NC12CCCCC2)N1CCN(c2ccccc2)CC1,"inconclusive: 2.51 µM [inhibitor, full curve, poor fit]",,
CCc1ccc(CN2CCc3nc(Nc4ccccc4)ncc3C2)cc1,"inconclusive: 5.62 µM [inhibitor, partial curve]",,
Cc1cccc2sc(N(Cc3cccnc3)C(=O)c3cccs3)nc12,"inconclusive: 17.8 µM [inhibitor, single point]",,
CCCc1cc(CN(C)c2nc(CCN)nc3sc(C)c(C)c23)[nH]n1,active: 10 µM,,
CCc1ccccc1Nc1nn2c(=O)c3ccc(C(=O)NC(C)c4ccccc4)cc3nc2s1 (stereo not drawn),active: 1 µM,,
Cc1ccc(NC(=O)C(=O)NCC(c2cccnc2)N2CCN(c3ccccc3F)CC2)cc1Cl (stereo not drawn),"inconclusive: 20 µM [inhibitor, single point]",,
CC(C)(C)C(=O)NCc1ccnc2[nH]ccc12,,inactive: 11.4% [at 44.1 µM],
COc1ccccc1NC(=O)c1sc2nc(C)c(C(=O)Nc3ccc(C)cc3C)c(-c3cccs3)c2c1N,"inconclusive: 3.55 µM [inhibitor, partial curve]",,
CCC1=C(C(=O)OC)C(c2cccc(OC)c2OC)N2C(CC(=O)NCC3CC3)=CSC2=N1 (stereo not drawn),"inconclusive: 7.94 µM [inhibitor, partial curve, poor fit]",,
CS(=O)(=O)N1CCCN(Cc2cn[nH]c2-c2ccccc2)CCNC(=O)CC1c1ccccc1 (stereo not drawn),"inconclusive: 17.8 µM [inhibitor, single point]",,
COc1ccc(OC)c(S(=O)(=O)N2CCC(C(=O)N3CCCCCCNC(=O)CC3)CC2)c1,"inconclusive: 11.2 µM [inhibitor, single point]",,
Cc1noc(-c2cn(C3CCN(C(=O)Cc4cccc(F)c4)CC3)nn2)n1,,,inactive

Structure (SMILES),Potency,"activity, negative = inhibition",outcome
CN(C)c1cc(=O)c2ccnc(-c3ccccc3F)c2o1,"inconclusive: 0.631 µM [inhibitor, full curve]",,
Cc1c(CN2CCOc3ccc(C(=O)NCc4ccccc4F)cc3C2)cnn1C,,,inactive
CCOc1ccc(-c2nc(SCC(=O)c3ccccc3)n[nH]2)cc1,"inconclusive: 10 µM [inhibitor, single point]",,
CN(C)C(=O)[C@@H]1CN(Cc2ccc(F)cc2F)C[C@H]1CO,"inconclusive: 7.94 µM [inhibitor, partial curve]",,
CC1=C[C@@H](CNS(=O)(=O)c2ccc(C#N)cc2)[C@H](C(C)C)C[C@H]1CC(=O)NCc1ccc(C#N)cc1,"inconclusive: 8.91 µM [inhibitor, partial curve]",,
O=C(c1ccc(Br)cc1)N1CCN(CCc2ccncc2)CC1,"inconclusive: 3.98 µM [inhibitor, partial curve, poor fit]",,
CC1(C(=O)N2CCCC2C(=O)Nc2cccc(-n3cccn3)c2)CC1 (stereo not drawn),,inactive: -9.54%,
CCn1cc(S(=O)(=O)N2CCCC(Cc3ncc(C)n3Cc3ccccc3)C2)cn1 (stereo not drawn),"inconclusive: 3.55 µM [inhibitor, single point]",,
CCOC(=O)c1ccc(N2C(=O)c3n[nH]c(-c4ccco4)c3C2c2ccc(O)c(OCC)c2)cc1 (stereo not drawn),,,inactive
Cc1cccc(Nc2nnc(-c3ccc(C)c(S(=O)(=O)NCC4CCCO4)c3)c3ccccc23)c1 (stereo not drawn),active: 4.47 µM,,
O=C(Nc1ccon1)[C@@H]1C[C@@H](c2ccc(F)cc2)N(Cc2ccccc2)C1,"inconclusive: 31.6 µM [inhibitor, partial curve, poor fit]",,
CC(C)CCN1CCC2(COc3ccccc3C(=O)N2)C1 (stereo not drawn),"inconclusive: 12.6 µM [inhibitor, single point]",,
O=C(NC1CCCCC1)c1ccc(CSc2nc3cccnc3n2Cc2ccc(F)cc2)cc1,,inactive: 20.4% [at 5.79 µM],
O=C(N[C@H]1C[C@H]2C(=O)Nc3cc(Cl)ccc3C(=O)N2C1)c1ccccc1,,inactive: 12.5% [at 44.1 µM],
COc1ccc(OC)c(NC(=O)C2CCN(S(=O)(=O)c3ccc4c(c3)CCCC(=O)N4)CC2)c1,"inconclusive: 17.8 µM [inhibitor, single point]",,
CCOC(=O)c1ccc(NC(=O)CCC(=O)N2Cc3ccccc3Oc3ncccc32)cc1,"inconclusive: 8.91 µM [inhibitor, partial curve]",,
O=C(c1ccc(C(F)(F)F)cc1)N1CCC12Cc1ccccc1NC2=O (stereo not drawn),"inconclusive: 17.8 µM [inhibitor, single point]",,
COc1ccc(C(=O)N2CCC(N3C[C@H](O)C[C@H]3C(=O)NC3CCCCC3)CC2)cc1OC,"inconclusive: 17.8 µM [inhibitor, single point]",,
CCOC(=O)c1c(NC(=O)c2ccc(S(=O)(=O)N3CCC(C)CC3)cc2)sc2c1CCN(CC)C2,active: 8.91 µM,,
O=C1Nc2ccccc2CC12CCN2Cc1cccc2ccccc12 (stereo not drawn),,inactive: -2.09% [at 44.1 µM],
COc1ccc(-c2nc3c(c(=O)[nH]2)CCN(S(=O)(=O)c2cccc4cccnc24)C3)cc1,"inconclusive: 6.31 µM [inhibitor, partial curve, poor fit]",,
